Measurements as given in a compilation of properties of binary mixtures (doi:10.1016/j.molliq.2019.110987).
Some of these densities may be calculated back from excess volumes.

Test: xn = mol fraction of the nth substance listed
Settings: 100 kPa

CN(C)C=O + CCCC[P+](C)(CCCC)CCCC.COS(=O)(=O)[O-]
x2 = 0
Settings	mass density [kg/m3]
293.15 K	949
298.15 K	944.5
303.15 K	940
313.15 K	931.1
318.15 K	926.5

CCCC[P+](C)(CCCC)CCCC.COS(=O)(=O)[O-] + CN(C)C=O
mass density [kg/m3]
Settings	293.15 K	298.15 K	303.15 K	308.15 K	313.15 K	318.15 K	323.15 K
x1 = 0.0474	968.3	964.9	961.8	958.4	–	950.5	945.8
x1 = 0.0765	978.3	975.2	–	968.4	964.9	961	956.2
x1 = 0.1106	988.3	984.7	981.6	978.6	975	971.4	966.5
x1 = 0.1508	996.6	993.6	991	987.6	984	980.5	–
x1 = 0.1991	1004.1	1000.9	999.1	996	993	989.6	985.5
x1 = 0.2582	1011.5	1008.6	1006.3	1003.9	1000.5	–	994
x1 = 0.3321	–	1016.2	1013.9	1010.8	1007.9	–	1001.8
x1 = 0.4272	–	1024.1	1021.6	1019	1016	1013.5	1010.3
x1 = 0.5542	1036.5	1034	1031.6	1028.8	1025.7	1022.7	1019.6
x1 = 0.6717	1044.2	1041.6	1038.9	–	1033.4	1030.6	1027.5
x1 = 0.7768	1050	1047.7	1044.9	1041.8	1039.2	1036.5	1033.6
x1 = 0.8253	1052.7	1050.2	1047.6	1044.6	1041.8	1039	1036.1
x1 = 0.8837	1056.1	1053.3	–	1047.7	1044.7	1041.7	–
x1 = 0.9362	–	1055.9	1053.1	1050.1	1047.1	1044.2	1041.2
x1 = 1	1061.7	–	1055.6	1052.5	–	1046.5	1043.4
